The source of these data is PubChem BioAssay (NCI).

The experiment deals with NCI-H322M lung. Put plainly: NCI tumour cell line growth inhibition, 48 h.

The structures appear in SMILES notation.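 Compound exposure: 48 hours, 5 concentrations, 96-well plates. GI50: concentration for 50% inhibition of growth. TGI is the concentration that stops growth completely.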

In the case of `COCCOCCOCCOc1ccc(-n2cc(CCCN(CCNc3ccnc4cc(Cl)ccc34)C(=O)CCC(=O)O[C@@H]3O[C@@H]4OC5(C)CC[C@H]6[C@H](C)CC[C@@H]([C@H]3C)[C@@]46OO5)nn2)cc1`, the GI50 was greater than 10.3 µM and the TGI was greater than 10.3 µM.
Regarding `O=C(COc1ccc(NC(=O)Nc2ccc(Cl)c(Cl)c2)cc1)N=Nc1c(O)[nH]c2ccc(Cl)cc12`, the GI50 is 2.47 µM and the TGI was found to be 5.9 µM.
